Measurements reported in PubChem BioAssay AID881 (National Center for Advancing Translational Sciences (NCATS), 2007).
The campaign covered roughly 110,000 compounds. About 610 (0.55%) were called active. Inconclusive results, whose numbers are uncertain, are shown with a selection of clear calls. Calls come from the whole dose curve; as a rule, active = well fitted inhibition curve with a large enough effect; inconclusive = small, poorly fitted or top-dose-only effect; inactive = no such curve, though single readings can be large or run the other way. Potencies of inconclusive entries are doubtful fits and often do not repeat.

The compounds below were run against Polyunsaturated fatty acid lipoxygenase ALOX15B (Homo sapiens) (UniProt O15296) (assay: qHTS Assay for Inhibitors of 15-hLO-2 (15-human lipoxygenase 2)). Conditions: purified 15hLO-2, xylenol orange hydroperoxide absorbance; activity change, negative = inhibition: at 57.1 µM (top of the series) unless noted.
Sequence of UniProt O15296 (O15296 whole entry, looked up): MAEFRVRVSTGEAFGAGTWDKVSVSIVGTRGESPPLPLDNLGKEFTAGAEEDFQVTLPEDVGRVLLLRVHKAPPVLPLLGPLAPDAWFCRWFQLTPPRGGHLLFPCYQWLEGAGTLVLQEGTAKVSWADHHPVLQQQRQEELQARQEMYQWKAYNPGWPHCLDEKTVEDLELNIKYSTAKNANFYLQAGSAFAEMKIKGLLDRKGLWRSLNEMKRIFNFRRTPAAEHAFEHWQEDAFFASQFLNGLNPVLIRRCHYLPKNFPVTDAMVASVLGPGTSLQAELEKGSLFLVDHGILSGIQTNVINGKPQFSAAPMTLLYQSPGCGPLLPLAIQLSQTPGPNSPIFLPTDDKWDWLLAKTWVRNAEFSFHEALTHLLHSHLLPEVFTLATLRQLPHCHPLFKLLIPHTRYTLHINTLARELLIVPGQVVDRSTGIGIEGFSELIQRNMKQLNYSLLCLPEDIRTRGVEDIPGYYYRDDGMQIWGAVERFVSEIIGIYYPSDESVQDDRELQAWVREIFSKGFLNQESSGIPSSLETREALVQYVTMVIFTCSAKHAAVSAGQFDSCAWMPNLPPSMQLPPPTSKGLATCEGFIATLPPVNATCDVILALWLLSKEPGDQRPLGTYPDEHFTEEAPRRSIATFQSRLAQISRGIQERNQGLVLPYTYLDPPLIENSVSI
Text: Assay Overview: NIH Molecular Libraries Screening Centers Network [MLSCN] NIH Chemical Genomics Center [NCGC] MLSCN Grant: MH081283-01A1 PI Name: Holman, T.R., University of California, Santa Cruz Human lipoxygenase 15hLO-2 is a member of the closely related lipoxygenase family of enzymes which catalyze the site-specific oxidation of arachidonic acid to various hormone precursor molecules and as such is a candidate for drug development in a variety of disease areas, such as cancer and inflammation. Inhibition of 15hLO-2 activity was screened by utilizing arachidonic acid as a substrate. The extent of hydroperoxide product formation was measured by a secondary chromogenic reaction in which xylenol orange (XO, Sigma-Aldrich, cat. number 39,818-7) reacts with the ferric ions produced from the reaction between the hydroperoxide and ferrous ions. The Fe(III)-XO complex is characterized with red-shifted absorbance at 560 nm. A purified preparation of human 15hLO-2 was supplied by Professor Ted Holman, University of California, Santa Cruz.
Assay Protocol: Buffer: 25 mM Hepes pH 7.5, 0.01% Triton X-100. Reagents/Controls: Buffer in columns 3 and 4 as negative control (no enzyme). Substrate solution: 45 uM arachidonic acid (Sigma-Aldrich, St. Louis, MO) final concentration dispensed throughout the plate. Enzyme: 50 nM 15hLO-2 final concentration in columns 1, 2, 5-48. Column 1 is neutral (100% activity). Column 2 contained pin-transferred titration of NDGA (nordihidroguaiaretic acid, Sigma-Aldrich, N 5023, top concentration 10 mM in DMSO, then 1:2 dilution in duplicate). (Dilution factor: 23 nL into 4 uL.) Chromogenic detection reagent (divalent iron/xylenol orange, Fe-XO): 200 uM xylenol orange plus 300 uM ferrous ammonium sulfate prepared freshly in 50 mM sulfuric acid. Assay Steps: Three uL of enzyme were dispensed to 1536-well Greiner black clear bottom plates. Compounds and controls (23 nL) were transferred via Kalypsys PinTool. The plates were incubated for 15 min at room temperature, and then 1 uL of substrate solution was added to start the reaction. After room temperature incubation for 90 minutes, 4 uL of Fe-XO solution was added to each well followed by a short spin (1000 rpm, 15 sec) and the plates were then incubated for 30 min. The absorbance at 405 and 573 nm were measured using ViewLux (Perkin-Elmer) High-throughput CCD imager and absorbance protocol settings. The 573-to-405 absorbance ratio was used to compute reaction progress.
% is set by controls: 0 for no effect and ±100 for the full control effect; potency is the fitted concentration of half-maximal effect; tags give direction and shape of the fitted curve.
Note: nearly all actives have a fitted effect of over 60% in size.

| Structure (SMILES) | activity change, negative = inhibition | Potency |
| --- | --- | --- |
| C=C(C)C(=O)OCCCCCCCCCC | inactive: 3.42% | – |
| N#Cc1ccccc1CN1C(=O)S/C(=C/c2cccn2-c2cccc(C(=O)O)c2)C1=O | – | inconclusive: 20 µM [inhibitor, single point] |
| Cc1n[nH]c(=O)nc1NCc1ccccc1Cl | – | inconclusive: 0.199 µM [inhibitor, full curve, poor fit] |
| COc1ccc(N2CSC3=C(C#N)C(c4cc(OC)ccc4OC)CC(=O)N3C2)c(OC)c1 (centres undefined) | – | active: 10 µM |
| CCN1C(=O)/C(=C2/Sc3ccc(OC)cc3N2C)SC1=Nc1cccc(O)c1 | – | inconclusive: 10 µM [inhibitor, partial curve] |
| Clc1ccc(-c2csc(NNC3=NCCCCC3)n2)cc1 | – | inconclusive: 25.1 µM [inhibitor, single point] |
| COc1cc(O)c2c(=O)c(O)c(-c3ccc(O)c(O)c3)oc2c1 | – | inconclusive: 12.6 µM [inhibitor, partial curve] |
| COc1ccc(-c2ccc3c(N)c(C(=O)c4cccc(OC)c4)sc3n2)cc1 | – | inconclusive: 7.94 µM [inhibitor, partial curve] |
| Cc1ccccc1-c1nc(NCc2cccnc2)c2ccccc2n1 | inactive: 9.35% | – |
| O=C(CCN1C(=O)/C(=C/c2cccc(Br)c2)SC1=S)NNC(=O)c1cccnc1 | – | inconclusive: 15.8 µM [inhibitor, partial curve] |
| CCOc1cc(N2CCOCC2)c(OCC)cc1NC(=O)c1cc(-c2ccco2)nc2ccccc12 | – | inconclusive: 31.6 µM [inhibitor, single point] |
| O=C1N=C(c2ccccc2)S/C1=C\c1cccs1 | – | active: 10 µM |
| CC(=O)C1=C(C)Nc2cc(C(F)(F)F)ccc2S1 | – | inconclusive: 25.1 µM [inhibitor, partial curve] |
| CN1CSC2=C(C#N)C(c3cccc(OCc4ccccc4)c3)CC(=O)N2C1 (centres undefined) | – | inconclusive: 20 µM [inhibitor, partial curve] |
| CC(C)NC(=S)N/N=C1\CCCCC1C1CCCCC1 (centres undefined) | – | inconclusive: 20 µM [inhibitor, partial curve] |
| S=C(Nc1ccccc1)Nc1nccs1 | – | inconclusive: 15.8 µM [inhibitor, partial curve] |
| CCN(CC)S(=O)(=O)c1cccc(C(=O)Nc2cc(C)cc(C)c2)c1 | – | inconclusive: 0.158 µM [inhibitor, full curve, poor fit] |
| O=C(Nc1ccc(-c2cc3ccccc3oc2=O)c(Cl)c1)c1cccnc1 | – | inconclusive: 12.6 µM [inhibitor, partial curve] |
| N#CC1=C2SCN(c3ccc(F)cc3)CN2C(=O)CC1c1cccc(F)c1 (centres undefined) | – | inconclusive: 12.6 µM [inhibitor, partial curve] |
| CCOc1ccccc1OCC(=O)Nc1ccc(N2CCCCC2)cc1 | inactive: -7.73% | – |
| NC(=O)c1cc[n+](CC2=C(C(=O)[O-])N3C(=O)[C@@H](NC(=O)Cc4cccs4)[C@@H]3SC2)cc1 | inactive: 14.8% [at 25.6 µM] | – |
| Cc1ccc(-c2noc(C3CCCCC3)n2)cc1 | – | inconclusive: 20 µM [inhibitor, partial curve] |
| O=C(Nc1ccc2c(c1)OCCO2)c1cccc2nc3ccccc3nc12 | – | inconclusive: 31.6 µM [inhibitor, single point] |

| Structure (SMILES) | activity change, negative = inhibition | Potency |
| --- | --- | --- |
| CCCCSc1nc(C)cc(NC(=S)Nc2ccc(OC)cc2)n1 | – | inconclusive: 7.94 µM [inhibitor, full curve] |
| CCOC(=O)CSc1nc(NCc2ccco2)c2ccccc2n1 | inactive: 8.8% | – |
| COc1ccc(C2c3sc(=O)[nH]c3SC3C4CCC(C4)C23)cc1 (centres undefined) | – | inconclusive: 20 µM [inhibitor, partial curve] |
| O=C(COC(=O)COc1ccc(Nc2ccccc2)cc1)NCc1ccco1 | – | inconclusive: 15.8 µM [inhibitor, partial curve] |
| c1ccc(CSc2nnc3c(n2)OC(c2ccco2)Nc2ccccc2-3)cc1 (centres undefined) | – | inconclusive: 39.8 µM [inhibitor, single point] |
| Cc1cc2c(cc1C)CSC(c1ccc3ccccc3c1O)SC2 | – | inconclusive: 12.6 µM [inhibitor, partial curve] |
| COc1ccc(CCn2c(N)c(C#N)c3nc4ccccc4nc32)cc1OC | – | inconclusive: 39.8 µM [inhibitor, single point] |
| CCCCSc1nnc2c(n1)OC(C(=O)c1ccccc1)Nc1ccccc1-2 (centres undefined) | – | inconclusive: 31.6 µM [inhibitor, single point] |
| CCCN(CCC)C(=O)SCC | inactive: -1.09% | – |
| O=C(c1coc(=O)c(Br)c1)N1CCCc2ccccc21 | – | inconclusive: 20 µM [inhibitor, single point] |
| CCOc1ccccc1-n1c(SCC(=O)Nc2ccc(CC)cc2)nc2n[nH]c(C)c2c1=N | – | inconclusive: 7.94 µM [inhibitor, partial curve] |
| CCOC(=O)c1ccc(N/C(=N\S(=O)(=O)c2ccccc2C)c2ccccc2)cc1 | – | inconclusive: 0.126 µM [inhibitor, partial curve, poor fit] |
| COc1ccc2[nH]c3c(=O)n(CCCCC(=O)NCCN4CCCC4)c(=S)[nH]c3c2c1 | – | inconclusive: 25.1 µM [inhibitor, partial curve] |
| Cc1cccc(CNc2ncncc2-c2ccccc2C)c1 | inactive: 43.2% | – |
| CCCn1c(=O)c(C(=O)Nc2nnc(CC)s2)c(O)c2ccccc21 | – | inconclusive: 31.6 µM [inhibitor, single point] |
| N#CC1=C(N)SC(N)=C(C#N)C1c1ccoc1 | – | inconclusive: 25.1 µM [inhibitor, single point] |
| CC1=C(SCCC#N)S/C(=C2\SC(C)=C(SCCC#N)S2)S1 | – | inconclusive: 20 µM [inhibitor, partial curve] |
| COc1ccccc1-c1cc(C(F)(F)F)nc(NCc2ccco2)n1 | – | inconclusive: 0.126 µM [inhibitor, partial curve, poor fit] |
| CCCCc1nc(NCCNC(=O)c2ccco2)c(C#N)c2c1CSC(C)(C)C2 | – | inconclusive: 25.1 µM [inhibitor, single point] |
| N#Cc1c(N)nc(SCc2ccccc2)c(C#N)c1-c1ccco1 | – | inconclusive: 31.6 µM [inhibitor, single point] |
| CCOc1ccc(S(=O)(=O)N/N=C2/CC(c3ccccc3)Oc3ccccc32)cc1 (centres undefined) | – | inconclusive: 25.1 µM [inhibitor, single point] |
| O=C(N/N=C/c1ccc(O)c(O)c1)c1ccc(CSc2cccc3cccnc23)cc1 | – | inconclusive: 12.6 µM [inhibitor, partial curve] |
| N#CC1=C(N)SC(N)=C(C#N)C1c1ccnc2ccccc12 | – | inconclusive: 15.8 µM [inhibitor, partial curve] |

| Structure (SMILES) | activity change, negative = inhibition | Potency |
| --- | --- | --- |
| COc1c(O)cc2c(-c3ccccc3)cc(=O)oc2c1OC | inactive: -6.82% | – |
| [O-]/[N+](=C\c1ccc(F)cc1)c1ccccc1 | – | inconclusive: 15.8 µM [inhibitor, partial curve] |
| Cc1cc(C)nc(Nc2ccc(N3CCCC3)cc2)n1 | – | inconclusive: 10 µM [inhibitor, partial curve] |
| O=c1cnc2cnc(Oc3cccc(Cl)c3)nc2n1C1CC1 | inactive: -4.7% | – |
| O=C1OC2(c3cc(Br)c(O)c(Br)c3Oc3c2cc(Br)c(O)c3Br)c2c(Cl)c(Cl)c(Cl)c(Cl)c21 | – | inconclusive: 39.8 µM [inhibitor, partial curve, poor fit] |
| CCSc1ncc(/C=N/Nc2ccc([N+](=O)[O-])cc2)n1C | – | inconclusive: 1.58 µM [inhibitor, partial curve] |
| COC(=O)[C@@]1(Cc2ccc(OC)cc2)[C@H]2c3cc(C(=O)N4CCCC4)n(Cc4ccsc4Br)c3C[C@H]2CN1C(=O)c1ccccc1 | inactive: -3.59% | – |
| C=C(C)CSc1nc2c(c(=O)[nH]c(=O)n2C)n1CCC(C)C | inactive: 4.24% | – |
| C/C(=N/NC(=O)c1cc2ccccc2cc1O)C1C(=O)c2ccccc2C1=O | – | inconclusive: 20 µM [inhibitor, partial curve] |
| c1csc(C2Nc3cccc4cccc(c34)N2)c1 | – | inconclusive: 2.51 µM [inhibitor, full curve] |
| Cc1nc(NCc2ccccc2)c2nc(-c3ccccc3)n(C(C)CN(C)C)c2n1 (centres undefined) | inactive: 45.1% | – |
| N=C1C=CC(=C(c2ccc(N)cc2)c2ccc(N)cc2)C=C1 | – | inconclusive: 39.8 µM [inhibitor, partial curve, poor fit] |
| Cc1cc(N2CCOCC2)ccc1/C=C1\NC(=O)N(CC(=O)Nc2ccccc2C)C1=O | – | inconclusive: 31.6 µM [inhibitor, single point] |
| Cc1noc(C)c1C(=O)N1CCC2(CC1)CCN(c1ccncc1)CC2 | inactive: 7.4% | – |
| Cn1c(=O)[nH]c(=O)c2c1nc(NCc1ccccc1)n2CCCc1ccccc1 | – | inconclusive: 25.1 µM [inhibitor, single point] |
| N#C/C(=C\c1ccc(O)c(O)c1)C(=O)c1ccc(O)c(O)c1 | inactive: -29.2% | – |
| CC(/C=N/n1c(-c2ccccc2)n[nH]c1=S)=C\c1ccco1 | – | inconclusive: 15.8 µM [inhibitor, partial curve] |
| CCC(C)c1ccc(O)c(N)c1 (centres undefined) | – | inconclusive: 12.6 µM [inhibitor, partial curve] |
| COc1ccc(-c2nc3cnc(OCc4ccccc4)nc3n(CCC#N)c2=O)cc1 | inactive: -1.13% | – |
| O=C1CCCCCN1Sc1ccccc1 | – | inconclusive: 20 µM [inhibitor, single point] |
| CCOc1ccccc1OCc1nn2c(COc3ccccc3)nnc2s1 | inactive: -16.6% | – |
| O=[N+]([O-])c1ccc(N=Nc2ccc(O)cc2O)cc1 | – | inconclusive: 15.8 µM [inhibitor, partial curve] |
| CCn1c2ccccc2c2cc(NC(=O)CSc3nnc(-c4ccc(OC)cc4)n3N)ccc21 | – | inconclusive: 15.8 µM [inhibitor, partial curve] |
